Test results as given in the RNAGym collection of RNA variant scans (doi:10.7554/elife.90254).
The source gives no read counts; variants with many changes may rest on few reads.

B1: LINE1-mini (parent)
chain: GGCAGAGCUCAACACAGCGUGGCAAAGUGGCUGUGGCUAGACUGCC

Variants of: B1
Test: self-cleavage, relative activity (ratio to wild type); higher = more cleavage; in vitro, sequencing; the parent is a self-cleaving ribozyme
In the case of A11C A16G C23U G40U, the self-cleavage is reported as 0.01. A16C G19A A39U gave a self-cleavage of 0.03. G19A C23A G27U gave a self-cleavage of 0.72. Variant G29U G30C C42U has a self-cleavage of 0.03. A14C G17A A26U showed a self-cleavage of 0.04. In the case of A24C G35C G40U, the self-cleavage is reported as 0.02. G1U C10A C37A gave a self-cleavage of 0.04. G1A G2A G17U A39C C42G showed a self-cleavage of 0.05. A12C A26C G44A showed a self-cleavage of 0.02. A6U G27A U28A gave a self-cleavage of 0.91. C18G G19C C37A showed a self-cleavage of 0.04. In the case of G1A U20C A41U C46U, the self-cleavage is reported as 2.06. In the case of C8G C13U A26C A39U, the self-cleavage is reported as 0.1. For C10U C18G U20C, the self-cleavage was 0.35. A14C G33A G36C showed a self-cleavage of 0.01. C18A G22A G35A showed a self-cleavage of 0.05. Work on G5A G7A C18A C31U yielded a self-cleavage of 0.06. A6G G7A C8G C15A gave a self-cleavage of 0.03. With C15U C18A A41U the self-cleavage was 0.02. C8A A11U C18G gave a self-cleavage of 0.02. U9A G21U C46U gave a self-cleavage of 0.12. For G5A G7C A24C A25U U32C C42A C45G, the self-cleavage was 0.02. For C18U C23A U34G, the self-cleavage was 0.13. U9A G19C G30U U32A G35U showed a self-cleavage of 0.16. For A6C C18G C31A C37G, the self-cleavage was 0.01. In the case of A11G G33C G44A, the self-cleavage is reported as 0.01. In the case of C13A G21C G29A U34A, the self-cleavage is reported as 0.11. With A6G C13G G19U G30A A41U the self-cleavage was 0.02. Variant A14U C15U U20G has a self-cleavage of 0.16. Variant C13A G22C U38A G44C has a self-cleavage of 0.03. In the case of G5U A16U G21C, the self-cleavage is reported as 0.05. G22C A26G G30U C31A U34G gave a self-cleavage of 0.05. C3G A4U G5C A11C C13A G19C G27A G29A C46U showed a self-cleavage of 0.03. With A16C U34G A41G the self-cleavage was 0.01. With A6C G22U G27U the self-cleavage was 0.24. G2U C8U A25C C31U C46G showed a self-cleavage of 0.03. Variant C8A A11G G33A has a self-cleavage of 0.07. G2C A16G A25C gave a self-cleavage of 0.03. For G2A G27A C37U, the self-cleavage was 0.18. For A12G G19C G29A G36A A41C, the self-cleavage was 0.02. A12U A24C G29A showed a self-cleavage of 0.19. With G21A G36U A39G the self-cleavage was 0.01. G2U C3U G5A G17U G29A showed a self-cleavage of 0.06. With C13U A16U U20G the self-cleavage was 0.01. Work on G2U G7U U32A G36A yielded a self-cleavage of 0.02. In the case of U9A U28A A39U, the self-cleavage is reported as 0.13. G7U A12G C18G G19A U38A A39U gave a self-cleavage of 0.13. For G17U C18U G22C C31A C46U, the self-cleavage was 0.21. C3A C13G U28G gave a self-cleavage of 0.61. With A16C G22U C46A the self-cleavage was 0.05. G22A C37U A39U U43A gave a self-cleavage of 0.01. C10A A11U G30C G33C A41U U43A showed a self-cleavage of 0. G5U U20A U38C showed a self-cleavage of 0.03. In the case of A4C C10A A12C G27C G44A, the self-cleavage is reported as 0.02. A14U C18A G22U gave a self-cleavage of 0.13. C8G G17A G21A gave a self-cleavage of 0.04. Work on C10A C23U U43A yielded a self-cleavage of 0.01. For A4G A6U C10G G35A, the self-cleavage was 0.03. A12U U20G C45A showed a self-cleavage of 0.02. In the case of C23U G27A C31U G36A A39G, the self-cleavage is reported as 0.02. G5C G22C G36C showed a self-cleavage of 0.01. C15U U20G G33C U43C showed a self-cleavage of 0.06. Work on C10U C23A C46U yielded a self-cleavage of 0.36. Variant G7U G17A C23G U28C C31A G33C has a self-cleavage of 0.03. With C13A A25C U32G U34C U43C the self-cleavage was 0.02. With G1U A4U G22C C31G the self-cleavage was 0.01. Work on C3A G19A A25G G30C C42U C46G yielded a self-cleavage of 0.1. Variant C23U G27C C37G has a self-cleavage of 0.03. With C3G C15A G30A the self-cleavage was 0.15. Variant C8G A11C A14C A39U G40U has a self-cleavage of 0. With A4G C23G G29C G30A the self-cleavage was 0.17. For A14G G17A U28C G35A, the self-cleavage was 0.08. With U9A C15U A24G G29U the self-cleavage was 0.19. C23U A24U G35U U43A showed a self-cleavage of 0.1. With G1A C3A G5C G7A U9A C45U C46G the self-cleavage was 0.99. Variant G19U U20A U43A has a self-cleavage of 0.02. C8U A11G G33U U43A gave a self-cleavage of 0.04. Variant C18U A24G G27A G29U G30A G35U has a self-cleavage of 0.24. For G29A G30U G36U, the self-cleavage was 0.07. With U20G C23A U28A U34G C37U G40C the self-cleavage was 0.03. G7C A14G G30U U43C gave a self-cleavage of 0.07. C10U C13G U20G G27U G35U G36C showed a self-cleavage of 0.03. In the case of A4C A16U C42U, the self-cleavage is reported as 0.02. G30C C42A C45A gave a self-cleavage of 0.02. G7C C10U G21A G27U gave a self-cleavage of 0.02. Work on G2U G5U U9G A14G G30A U38G yielded a self-cleavage of 0. For C23G A24U G40U C45A, the self-cleavage was 0.03. C10A A25G U32C G40C C46U showed a self-cleavage of 0. With G27C U28C A41U the self-cleavage was 0.52. C8U U9G A14G A25G A26U G27A showed a self-cleavage of 0. For C8G G19C G35C, the self-cleavage was 0.03. For A4C G17A A24C, the self-cleavage was 0.2. With A4G C8G G21U the self-cleavage was 0.24. C10A A16C U32A G33U gave a self-cleavage of 0. For C8A C10A G22C U28G, the self-cleavage was 0.02. C18G G22A U28G showed a self-cleavage of 0.07. In the case of A6U C10U U28A C31U, the self-cleavage is reported as 0.11. C8G A16C U28G G36U U38C showed a self-cleavage of 0.05. For A14C C18A G22C, the self-cleavage was 0.04. A25U A39G C46A showed a self-cleavage of 0.06. Variant G1A C8G C18U U32C C37U has a self-cleavage of 0.01. Work on G17C G36U A41U yielded a self-cleavage of 0.08. Variant G22C C23U A24C C37U C46U has a self-cleavage of 0.03. With A12C G21U A39U the self-cleavage was 0.02. For G1C C3U G5U C8A A14G, the self-cleavage was 0.1. For G30A G44U C45U, the self-cleavage was 0.17. C10G A16U A25U G35U gave a self-cleavage of 0.03. For A6G G21U A24C G33C, the self-cleavage was 0.02. In the case of A14U C18G G36C C42A, the self-cleavage is reported as 0.01. Work on C13G C18G G36A yielded a self-cleavage of 0.05. In the case of C13G U32G G33U C42U C45U, the self-cleavage is reported as 0.1. In the case of C18A G30A U43A, the self-cleavage is reported as 0.04. A11U G30C A39G gave a self-cleavage of 0.18. C18U G29C C46A showed a self-cleavage of 0.25. G27C G36C C37U A39U showed a self-cleavage of 0.01. In the case of A14C U20C C37A, the self-cleavage is reported as 0.03. U32C G33U C42A showed a self-cleavage of 0.06. For A4U C37G U43G C46U, the self-cleavage was 0.02. U9C A11C C18G G21U showed a self-cleavage of 0.05. G1A C31G U32G gave a self-cleavage of 0.16. Variant G1C A14G C37A C42U has a self-cleavage of 0. G17C C23A C31U C42U C46G gave a self-cleavage of 0.01. With C3A U20A G27C the self-cleavage was 0.25. G17C A26G A41U showed a self-cleavage of 0.02. Work on G29U G30U G44C yielded a self-cleavage of 0.13. Work on A14G C15U A26G G44A yielded a self-cleavage of 0.03. Work on G7U C8A G30U C31A yielded a self-cleavage of 0.12. C3U U20C A25G G29A U32G gave a self-cleavage of 0.05. Variant G29C U38A G40A C45U has a self-cleavage of 0.07. With A12C A14G C15G C31A the self-cleavage was 0.04. Work on G2U G19A A26G yielded a self-cleavage of 0.04. In the case of U28A G36U C46G, the self-cleavage is reported as 0.03. With U28A G36C U43G the self-cleavage was 0. In the case of G1A C8U G36A, the self-cleavage is reported as 0.91. In the case of C15U G30A C37U A39G, the self-cleavage is reported as 0.01. For C3U C10A A11G A12U G44C, the self-cleavage was 0.04. Work on C3U A4C G29U G44A yielded a self-cleavage of 0.02. In the case of C18U G30U U43A, the self-cleavage is reported as 0.03. With G2A G5C U32C the self-cleavage was 0.01. For G21U A24C A26C G30A, the self-cleavage was 0.44. U28A U38C A39G gave a self-cleavage of 0.1. Work on G5A A12G U43A yielded a self-cleavage of 0.09. In the case of C8A U20C C23A A26U G27U, the self-cleavage is reported as 0.05. In the case of C8U G36U A41C, the self-cleavage is reported as 0.06. For C8U A16U C31A C37U U43C, the self-cleavage was 0.11. Variant G22A U38A A41C has a self-cleavage of 0. G2C A6C G36U U43A gave a self-cleavage of 0.01. C10A G29A G30C C46U gave a self-cleavage of 0.07. Work on A26C U28G U34G yielded a self-cleavage of 0.07. In the case of A12G G19C U20A G30U, the self-cleavage is reported as 0.02. Variant G5U A24G U43G has a self-cleavage of 0. In the case of A11G C13U A16C G30A G44A, the self-cleavage is reported as 0.03. Work on A6C G21C A26C U32G A39U yielded a self-cleavage of 0.02. In the case of G1C C18A G22U G36C C37G C46U, the self-cleavage is reported as 0.01. Work on C13G G36A G40U yielded a self-cleavage of 0.28. For G5U A12U G44C, the self-cleavage was 0.12. G21U G40C C45U gave a self-cleavage of 0.01. Variant A12G C15U G17U U20A G29U has a self-cleavage of 0.01. With G7A C23U A41U C42U C46A the self-cleavage was 0.06. For U9G C18G G40C C46G, the self-cleavage was 0.03. In the case of A6G C15U A39C, the self-cleavage is reported as 0.21. Work on A14G A26C G29C U32A G33C C42U yielded a self-cleavage of 0.03. U9A G33A G35U G36A showed a self-cleavage of 0.07. Variant A4U U38C C45G has a self-cleavage of 0.01. Variant A6G A24G A25C has a self-cleavage of 0.18. For G5C C18G C37A U43G, the self-cleavage was 0.06. C13U C31U G36A gave a self-cleavage of 0.04.
